According to the supplement of paper PMC6206098:
± gives the uncertainty stated by the source. The sequences are guide strands of siRNAs; only the seed at positions 2 to 7 varies.

Tests used:
HeyA8 = assay: cell viability relative to lipid-only control; higher = less toxic; conditions: concentration: 10 nM; 96 h; Homo sapiens
Description: (§1)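 Arrayed screen of 4096 siRNA duplexes, each carrying one of all possible 6mer seeds at guide-strand positions 2-7 in a fixed neutral 19mer scaffold (constant flanks: U at position 1, then ACAUGUAAACCA, plus a 3' AA overhang). The passenger strand is 2'-O-methylated at positions 1-2 so only the guide strand loads into RISC. Duplexes were reverse-transfected at 10 nM with RNAiMAX in triplicate in 384-well plates; viability was read by CellTiter-Glo ATP content 96 h after transfection. Values are % viability normalised to lipid-only wells (HeyA8, H460, M565) or to siNT1 (3LL).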

M565 = assay: as above; conditions: concentration: 10 nM; 96 h; Mus musculus
Description: as §1

H460 = assay: as above; conditions: concentration: 10 nM; 96 h; Homo sapiens
Description: as §1

3LL = assay: cell viability relative to siNT1 control; HeyA8 human ovarian and H460 human lung cancer; M565 mouse liver and 3LL mouse lung cancer; siNT1 is a non-toxic control siRNA; higher = less toxic; conditions: concentration: 10 nM; 96 h; Mus musculus
Description: as §1
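Wherever cell viability relative to lipid-only control is given: reverse lipid transfection in 384-well plates, in triplicate, of duplexes on a non-toxic 19mer backbone with passenger strand 2′-O-methylated at positions 1 and 2, luminescence viability read-out.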
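Wherever cell viability relative to siNT1 control is given: Luminescence-based viability of cells reverse transfected in 384-well plates with lipid-complexed siRNAs built on a non-toxic 19mer backbone whose passenger strand carries 2′-O-methyl groups at positions 1 and 2, triplicates.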

Sequence	cell viability (HeyA8)	cell viability (M565)	cell viability (H460)	cell viability (3LL)
UCACCGUACAUGUAAACCAAA	66.9 ± 7.9%	32.2 ± 2.1%	38.05 ± 0.049%	77 ± 15%
UUGUAUAACAUGUAAACCAAA	88.6 ± 2.1%	61.7 ± 16%	80.2 ± 15%	82.3 ± 14%
UAAGUCCACAUGUAAACCAAA	27.7 ± 4.9%	11 ± 1.9%	46.8 ± 4%	31.7 ± 4.7%
UGGUGAAACAUGUAAACCAAA	41.8 ± 3.9%	33.8 ± 10%	49.8 ± 5.9%	46.3 ± 4.3%
UUGACGCACAUGUAAACCAAA	93.2 ± 8%	72.9 ± 12%	66.5 ± 6%	64.7 ± 2.4%
UAGGCUGACAUGUAAACCAAA	33.6 ± 4.8%	13.1 ± 1.4%	71.4 ± 3.4%	79.4 ± 14%
UUGCCAAACAUGUAAACCAAA	84.8 ± 5.1%	37.2 ± 11%	60.2 ± 4.5%	46.8 ± 13%
UCGGUACACAUGUAAACCAAA	60.9 ± 3.8%	16.7 ± 1%	57.8 ± 9.8%	67.5 ± 6.6%
UCGCAGCACAUGUAAACCAAA	64.9 ± 2.5%	28.9 ± 5.8%	43.5 ± 2.7%	51.5 ± 21%
UAACAGGACAUGUAAACCAAA	66.2 ± 5.2%	56.6 ± 3.6%	76.8 ± 16%	83.8 ± 12%
UGUAUGAACAUGUAAACCAAA	61.7 ± 12%	77.9 ± 11%	70.3 ± 11%	76.3 ± 7.3%
UGAGCUGACAUGUAAACCAAA	38.1 ± 1.4%	9.92 ± 1.8%	49.5 ± 2.3%	33.6 ± 6.4%
UAGCCCAACAUGUAAACCAAA	67.4 ± 3.2%	15.6 ± 0.67%	40.9 ± 3.4%	24.8 ± 2.5%
UCAAUAGACAUGUAAACCAAA	85.6 ± 6.5%	65 ± 7.3%	54.1 ± 3.8%	94.1 ± 21%
UUGCGAUACAUGUAAACCAAA	91.1 ± 13%	56.9 ± 16%	45.5 ± 0.98%	44.5 ± 3.6%
UGGAUAGACAUGUAAACCAAA	56.8 ± 5.4%	24.5 ± 6.8%	45.8 ± 5.3%	87.4 ± 14%
UUGGUGCACAUGUAAACCAAA	68.7 ± 8%	20.2 ± 2%	49.7 ± 1.4%	17.5 ± 2%
UGGGAGUACAUGUAAACCAAA	2.47 ± 0.33%	14.4 ± 1.5%	12 ± 0.22%	11.5 ± 0.2%
UACAGAGACAUGUAAACCAAA	78.1 ± 14%	59.1 ± 12%	64.8 ± 4.4%	82.1 ± 15%
UCAUCGCACAUGUAAACCAAA	54.6 ± 9.7%	36.2 ± 6.9%	43.1 ± 6.2%	67.6 ± 13%
UAGUAGUACAUGUAAACCAAA	10.8 ± 1.4%	84.9 ± 7.9%	15.8 ± 6%	28.6 ± 5%
UUACUCAACAUGUAAACCAAA	59.6 ± 1.4%	31.5 ± 2.4%	71.9 ± 2.7%	81.7 ± 5.8%

Sequence	cell viability (HeyA8)	cell viability (M565)	cell viability (H460)	cell viability (3LL)
UGCAGCGACAUGUAAACCAAA	61.8 ± 4.2%	34.9 ± 2%	64.1 ± 4.4%	46 ± 4%
UUACUUGACAUGUAAACCAAA	92.8 ± 1.3%	82.9 ± 24%	67.3 ± 7.5%	84.8 ± 2.9%
UCACUCGACAUGUAAACCAAA	91.3 ± 10%	65.1 ± 4.3%	35 ± 6.5%	79.5 ± 19%
UGACAGGACAUGUAAACCAAA	93.1 ± 4.4%	17.25 ± 0.093%	32.9 ± 4%	23.3 ± 2.2%
UGGAAAGACAUGUAAACCAAA	67.1 ± 21%	38.9 ± 3.8%	79.6 ± 20%	90.2 ± 6.9%
UAGCUGGACAUGUAAACCAAA	3.21 ± 0.14%	14.8 ± 3.7%	15.4 ± 1.8%	11.6 ± 0.7%
UUUCAUAACAUGUAAACCAAA	97.8 ± 7.2%	82.6 ± 9.7%	37.4 ± 3.3%	112 ± 9.4%
UACUCGAACAUGUAAACCAAA	90.7 ± 10%	48.3 ± 8.3%	80.3 ± 2.9%	93.9 ± 9.2%
UUCAACUACAUGUAAACCAAA	39.6 ± 5.8%	21.9 ± 9.2%	70.9 ± 10%	20.8 ± 3.6%
UCAAGGCACAUGUAAACCAAA	13.7 ± 1.5%	3.51 ± 1.9%	27.9 ± 4.2%	14.5 ± 0.77%
UUUUAACACAUGUAAACCAAA	92.4 ± 6.8%	117 ± 7.9%	82.2 ± 5.1%	89.9 ± 3.7%
UGAUCCGACAUGUAAACCAAA	76.6 ± 4.5%	17.4 ± 3.1%	82.2 ± 9.4%	46.9 ± 12%
UGCUCUGACAUGUAAACCAAA	59.7 ± 4.4%	21.9 ± 5.4%	70.4 ± 2.5%	53.2 ± 5.8%
UCAUGUUACAUGUAAACCAAA	63.4 ± 1.9%	28.1 ± 7.3%	45.6 ± 2.7%	88.2 ± 15%
UAAGUCGACAUGUAAACCAAA	81.2 ± 18%	62.5 ± 9.7%	81.7 ± 22%	80.9 ± 12%
UUUAGAUACAUGUAAACCAAA	85.2 ± 5.7%	73.7 ± 11%	83.1 ± 9.7%	87.7 ± 8.4%
UUGCAUUACAUGUAAACCAAA	66.5 ± 4.3%	101 ± 11%	74.6 ± 6.7%	79.7 ± 4.8%
UCCCAACACAUGUAAACCAAA	88.3 ± 11%	29.8 ± 9.9%	56.8 ± 5.2%	88.9 ± 19%
UGGUAAUACAUGUAAACCAAA	42.5 ± 0.58%	40.7 ± 5.3%	44.7 ± 3%	91.4 ± 9.5%
UAUAUGCACAUGUAAACCAAA	11.3 ± 0.78%	70.5 ± 22%	32.4 ± 1%	8.85 ± 0.67%
UGGAUGAACAUGUAAACCAAA	43.5 ± 6.5%	16.5 ± 2.8%	53.8 ± 2.5%	96.9 ± 11%
UAGCGGCACAUGUAAACCAAA	4.4 ± 0.25%	10.2 ± 0.76%	30.6 ± 11%	11.3 ± 2.2%
